Data from PubChem BioAssay AID2451 (National Center for Advancing Translational Sciences (NCATS), 2010).
The campaign covered roughly 290,000 compounds. About 2,100 (0.72%) were called active. This list was built around the results that the source calls inconclusive (neither active nor inactive); the mix of calls is not that of the screen. Calls follow the shape of the dose curve; as a rule, active = well fitted inhibition curve with a large enough effect; inconclusive = small, poorly fitted or top-dose-only effect, or effect the other way; inactive = flat fitted curve, though single readings scatter. Potencies beside an inconclusive call are fits to weak or partial responses and may not hold up.

Each compound was assayed against Fructose-bisphosphate aldolase (Giardia intestinalis (strain ATCC 50803 / WB clone C6)) (UniProt A8B2U2) (assay: qHTS Assay for Inhibitors of Fructose-1,6-bisphosphate Aldolase from Giardia Lamblia). Settings: purified Giardia FBPA; series mostly up to 59.6 µM.
How it was run: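 40 nM FBPA preincubated 10 min at RT with compound (up to 57.5 uM final), then substrate plus GAPDH/TPI/NAD/arsenate coupling and diaphorase/resazurin added. Fluorescence read after 20 min at RT, 525/598 nm.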
Also: nearly all actives have a fitted effect of over 55% in size.
Potency is read from the fitted curve at half-maximal effect; tags tell the direction and shape of the fitted curve.

UniProt A8B2U2, sequence (A8B2U2 whole entry, looked up): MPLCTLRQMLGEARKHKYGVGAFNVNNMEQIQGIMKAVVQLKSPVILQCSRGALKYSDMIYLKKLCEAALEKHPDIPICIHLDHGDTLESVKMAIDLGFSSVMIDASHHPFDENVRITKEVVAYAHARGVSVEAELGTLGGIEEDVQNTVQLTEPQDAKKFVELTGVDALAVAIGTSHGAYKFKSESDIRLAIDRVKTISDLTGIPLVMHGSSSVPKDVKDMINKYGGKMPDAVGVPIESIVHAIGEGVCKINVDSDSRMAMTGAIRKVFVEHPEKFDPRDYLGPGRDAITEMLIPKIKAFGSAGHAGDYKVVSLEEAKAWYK

Row | Compound | Potency
1 | COc1cccc(CN2CCN(Cc3cc(OC)c(OC)cc3OC)CC2)c1 | active: 14.1 µM
2 | CNc1nc(-c2ccccn2)nnc1-c1ccccc1 | inconclusive: 19.9 µM [inhibitor, single point]
3 | COc1ccc(-c2[nH]n(-c3ccc([N+](=O)[O-])cc3)c(=O)c2C=NCCN2CCNCC2)cc1 | inconclusive: 31.5 µM [inhibitor, single point]
4 | CCSc1sccc1C1C(C#N)=C(N)N(c2cccnc2)C2=C1C(=O)CCC2 (stereo unspecified) | inconclusive: 19.9 µM [inhibitor, single point]
5 | CC(C)C[C@@H](CC(=O)N[C@@H](CCC(=O)O)CC(=O)O)NC(=O)[C@@H]1CNCC[C@H]1NC(=O)C[C@@H](NC(=O)C[C@H](CO)NC(=O)[C@@H]1CNCC[C@H]1N)C(C)C | inactive
6 | Cc1cc2n(n1)SC(Nc1cc(Cl)ccc1Cl)N2 (stereo unspecified) | inconclusive: 17.7 µM [inhibitor, partial curve]
7 | Cc1cccc(N2CCN(S(=O)(=O)c3ccc4c(c3)CCN4C(=O)CCC(=O)O)CC2)c1C | inconclusive: 22.3 µM [activator, partial curve]
8 | COc1ccccc1CNCC(=O)N1CC(=O)Nc2ccccc21 | inconclusive: 17.7 µM [inhibitor, partial curve]
9 | C=CCNc1nnc(C)c2ccccc12 | inconclusive: 11.2 µM [inhibitor, partial curve]
10 | CCOC(=O)c1c(-c2ccc(F)cc2)csc1NC(=O)CCN1CCOCC1 | inconclusive: 17.7 µM [inhibitor, single point]
11 | c1csc(-c2nnc(N3CCCCCC3)c3ccccc23)c1 | inconclusive: 28.1 µM [inhibitor, partial curve]
12 | CCCc1cc(=O)[nH]c(SCC(=O)N2CCOCC2)n1 | inconclusive: 22.4 µM [inhibitor, partial curve]
13 | CC(CN1CCCC1)OC(=O)c1ccccc1Cl (stereo unspecified) | inconclusive: 35.5 µM [inhibitor, partial curve, poor fit]
14 | CCCCC1=CC2=C(c3ccco3)C(=O)C(C)(OC(=O)c3ccc(OC)cc3)C(=O)C2=CN1c1ccccc1 (stereo unspecified) | inconclusive: 6.29 µM [inhibitor, partial curve]
15 | CCCc1ccc(-c2ccc(C(=O)O)cc2)nc1 | inconclusive: 35.5 µM [activator, partial curve]
16 | CCCOc1ccc(-c2nc(OC)c3ccccc3n2)cc1 | inactive
17 | COC(=O)CNC(=O)C1Cc2ccccc2CN1S(=O)(=O)c1ccc(F)cc1 (stereo unspecified) | inconclusive: 35.5 µM [inhibitor, single point]
18 | COc1ccccc1NC(=S)NCC1CCC(CNC(=S)Nc2ccccc2OC)CC1 (stereo unspecified) | inactive
19 | COc1cc(C2NC(C(=O)O)CS2)ccc1OCc1ccccc1C#N (stereo unspecified) | inconclusive: 17.7 µM [inhibitor, partial curve]
20 | CCOC(=O)C1=C(C)NC(=O)C1CC(=O)Nc1ccccc1 (stereo unspecified) | inconclusive: 39.7 µM [inhibitor, single point]
21 | C=C1N(C)c2cc([N+](=O)[O-])c(N)cc2C1(C)C | active: 4.46 µM
22 | CCOC(=O)c1cnc2ccccc2c1NCc1ccco1 | inactive
23 | Cc1ccc(C2=C(O)c3ccccc3C(=O)C2=O)cc1 | inconclusive: 25.1 µM [inhibitor, partial curve]
24 | Cc1ccc(S(=O)(=O)N2CCN(C(=O)CSc3nnc(C)c(=O)[nH]3)CC2)cc1 | active: 28.2 µM

Row | Compound | Potency
25 | COc1cc(C2C(C#N)=C(N)N(N(C)C)C3=C2C(=O)CCC3)cc(OC)c1OC (stereo unspecified) | inconclusive: 7.94 µM [inhibitor, full curve, poor fit]
26 | CC(=O)c1ccc(N2CCN(C3CCC(C(C)(C)C)CC3)CC2)cc1 (stereo unspecified) | inconclusive: 31.6 µM [inhibitor, single point]
27 | CCN(CC)c1ccc(N)cc1S(=O)(=O)Nc1ccccc1OC | active: 15.8 µM
28 | O=C(CSc1n[nH]c(-c2cccs2)n1)N1CCN(S(=O)(=O)c2ccc3ccccc3c2)CC1 | inactive
29 | Nn1c(Cc2ccccc2F)n[nH]c1=S | active: 14.1 µM
30 | CC(=O)N1CCC(N(CCN2CCOCC2)C(=S)Nc2ccc(C)cc2)CC1 | active: 7.06 µM
31 | CCOc1ccc(N(CC(=O)Nc2ccccc2C(=O)NCc2ccco2)S(C)(=O)=O)cc1 | inactive
32 | COC(=O)C1C(O)CCC2CN3CCc4c([nH]c5ccccc45)C3CC21 (stereo unspecified) | inconclusive: 8.89 µM [inhibitor, partial curve]
33 | COC(=O)C1C(=O)c2c([nH]c(C(=O)OC3CCCCC3)c2C)CC1C (stereo unspecified) | inactive
34 | CC(=O)Nc1ccc2nc3c(=O)n(C)c(=O)n(C)c3nc2c1 | active: 17.7 µM
35 | Cc1ccc(O)c(N=Cc2cccs2)c1 | active: 19.9 µM
36 | CCC(/C=C1\Sc2ccc(OC)cc2N1CCO)=C\c1sc2ccc(OC)cc2[n+]1CCO | inconclusive: 15.8 µM [inhibitor, partial curve]
37 | Cc1cc(C)n(-c2ccc(Cl)c(C(=O)O)c2)n1 | inactive
38 | COc1cc(OC)cc(C(=O)N2CCN(Cc3ccccc3Br)CC2)c1 | inconclusive: 15.8 µM [inhibitor, partial curve]
39 | CC(C)(C)NC(=O)c1ccc2c(c1)C(=O)N(C1CCCCC1)C2=O | inactive
40 | Cn1c(=O)c2c(nc(SCC(=O)O)n2Cc2cc3c(cc2Cl)OCO3)n(C)c1=O | inactive
41 | N#Cc1c(NC(=O)c2ccc(Br)o2)n(-c2ccccc2)c2nc3ccccc3nc12 | inconclusive: 7.06 µM [inhibitor, partial curve]
42 | Cn1c(NNC(=O)/C=C/c2ccc3c(c2)OCO3)cc(=O)n(C)c1=O | inconclusive: 7.06 µM [inhibitor, partial curve]
43 | CCOC(=O)c1ccc(N2CSC3=C(C#N)C(c4ccc(OC)cc4OC)CC(=O)N3C2)cc1 (stereo unspecified) | inconclusive: 1.77 µM [inhibitor, partial curve]
44 | O=C1OC2(c3cc(I)c(O)c(I)c3Oc3c2cc(I)c(O)c3I)c2c(Cl)c(Cl)c(Cl)c(Cl)c21 | inconclusive: 17.7 µM [inhibitor, single point]
45 | CN1c2ccccc2N(C)C1(C)c1ccccc1 | inconclusive: 7.06 µM [inhibitor, partial curve]
46 | CCCN1CCc2[nH]c(=S)[nH]c(=O)c2C1 | inconclusive: 22.3 µM [inhibitor, partial curve]
47 | COc1ccc(/C=N/NC(=O)c2ccc(N(C)S(=O)(=O)c3ccccc3)cc2)cc1 | inactive
48 | CSc1nc2nc3c(cc2c(=O)n1-c1ccc(C)cc1)COC(C)(C)C3 | inconclusive: 17.7 µM [inhibitor, partial curve]

Row | Compound | Potency
49 | COc1ccc2cc3c(N)nn(C(=O)c4ccc(Cl)c([N+](=O)[O-])c4)c3nc2c1 | inactive
50 | CC(C)NCC(=O)Nc1c2c(nc3ccccc13)CCC2 | active: 17.7 µM
51 | COc1cc(NC(=O)Nc2cccc(C(C)=O)c2)cc(OC)c1OC | inconclusive: 15.8 µM [inhibitor, single point]
52 | COc1ccc(NC(=O)CN2C(=O)c3ccccc3Sc3ccc(C(=O)N4CCOCC4)cc32)c(OC)c1 | inconclusive: 17.7 µM [inhibitor, single point]
53 | CC1CCc2nc(NC(=O)C3CCCO3)sc2C1 (stereo unspecified) | inconclusive: 17.7 µM [inhibitor, partial curve]
54 | Nn1c(SCC(=O)Nc2cccc(C(F)(F)F)c2)nncc1=O | active: 25.1 µM
55 | Oc1ccc(-c2nc(-c3ccc(O)c(O)c3)cs2)cc1 | inconclusive: 14.1 µM [inhibitor, partial curve]
56 | COc1cc2c(cc1OC)CN(C(C)C(=O)N1CCc3ccccc31)CC2 (stereo unspecified) | inconclusive: 19.9 µM [inhibitor, single point]
57 | Cc1ccc(N2C(=O)/C(=C/c3ccc(CN(CCC#N)S(C)(=O)=O)o3)C(=O)NC2=S)cc1C | inconclusive: 22.3 µM [inhibitor, single point]
58 | O=C(O)c1ccc(NC(=S)NC(=O)c2cccnc2)cc1 | active: 3.55 µM
59 | CS(=O)(=O)N1CCc2cc(NC(=O)c3ccc(Cl)cc3Cl)ccc21 | inactive
60 | Cc1oc2c(c1C(=O)c1ccccc1)C(=O)C(=O)c1ccccc1-2 | active: 1.12 µM
61 | Cc1cccc(NC(=O)c2cc(-c3cc(C)ccc3O)n[nH]2)c1 | inactive
62 | COc1[nH]c(/N=C/c2ccccc2)c(C#N)c1C#N | inconclusive: 31.6 µM [inhibitor, single point]
63 | Cc1cc[n+]2cc(-c3cccc([N+](=O)[O-])c3)c(-c3cccc([N+](=O)[O-])c3)cc2c1 | inactive
64 | COc1ccnc(CS(=O)c2nc3cc(C(O)(F)F)ccc3[nH]2)c1OC (stereo unspecified) | inconclusive: 8.91 µM [inhibitor, partial curve]
65 | Cc1ccc(C(C)C)c(OCC(=O)NN=C(CCl)CCl)c1 | active: 15.8 µM
66 | O=S1(=O)N=C(N/N=C/c2ccc(Br)o2)c2ccccc21 | inconclusive: 2.81 µM [inhibitor, full curve, poor fit]
67 | Cc1ccc(C(=O)NN2C(=O)c3ccc(S(=O)(=O)c4ccc(C(=O)O)cc4)cc3C2=O)cc1 | inconclusive: 15.8 µM [activator, single point]
68 | CC(=O)N1CC=CC1(CC(C)C)C(=O)NCCN1CCOCC1 (stereo unspecified) | inactive
69 | O=C(CCCSc1ccc(Cl)cc1)Nc1ccccc1O | inactive
70 | CN(Cc1ccco1)c1ccnc(-c2ccoc2)n1 | inconclusive: 17.7 µM [inhibitor, partial curve]
71 | C=CCc1ccccc1OCCNCc1ccccc1 | inconclusive: 19.9 µM [inhibitor, partial curve]
